Results from the supplement of paper PMC3334620.
Over roughly 33,000 sequences, “E-score (-0.5 to 0.5)” has its median near -0.017; the highest 2% begin near 0.3. This is one part of the list.

molecular target: T1, Sut1 (UniProt P53032); experiment: PBM E-score (8-mer binding enrichment) (E-score (-0.5 to 0.5)); higher = stronger / more preferred TF binding; most listed sequences are background and not binding sites; settings: protein concentration: 200 nM; construct: GST-full length
T1 sequence: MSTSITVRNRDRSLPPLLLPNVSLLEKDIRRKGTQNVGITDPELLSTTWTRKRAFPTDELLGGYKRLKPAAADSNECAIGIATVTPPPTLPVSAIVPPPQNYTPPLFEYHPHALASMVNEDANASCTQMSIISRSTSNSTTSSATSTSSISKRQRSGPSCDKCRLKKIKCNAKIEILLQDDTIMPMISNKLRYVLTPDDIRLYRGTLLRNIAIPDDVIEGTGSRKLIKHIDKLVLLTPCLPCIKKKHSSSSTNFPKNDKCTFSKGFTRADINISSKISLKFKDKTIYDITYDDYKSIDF
Method in brief: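 Masliner-normalised scans of fluorescent anti-GST signal were the basis for scoring. That signal came from GST-tagged yeast transcription factors applied at about 100-200 nM to double-stranded universal all-10-mer Agilent arrays on fresh or once-stripped slides. Each ungapped eight-base word, pooled with its reverse complement, received an E-score from the Universal PBM Analysis Suite.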

Sequence | PBM E-score
ATCTCATC | 0.00844
AGCCTCAT | -0.165
AAGGACTT | -0.00217
CATGGTTA | 0.059
AAACTCTC | 0.142
CGAACCCA | -0.062
GAGAAGCC | 0.0597
TGCCCGAA | 0.00332
GAAGTCGC | 0.0503
CCACGGAA | 0.178
GTATCCGA | -0.0454
ACGCCTTA | -0.303
CCAATAAG | -0.159
GCTGTGCC | -0.169
GAGCTACC | -0.0922
CATTGACC | -0.0262
ACTTCCAT | 0.0535
GGGTCCTA | -0.134
GGTCGCAC | -0.197
ATTTTCCA | 0.121
CGACAACA | -0.00636
CTTCATAA | 0.131
AATACCGC | -0.0155
CCACTAGG | -0.293
CATATAAG | 0.162

Sequence | PBM E-score
ACCGTATC | -0.0106
AGGCTAAG | -0.184
CGATTACC | -0.0591
TCAGAGAA | -0.165
CTTCGCTA | -0.0699
AGACAAAT | 0.151
CTTCGGTA | 0.0563
AGTTCGAA | 0.11
CTCTCAAC | 0.0279
CACTGACC | -0.0727
GTAACAAA | 0.243
GCCTCTTA | 0.0376
ACCTCACG | -0.214
GGTATCGA | -0.0556
CTAATGCC | -0.133
AACACAGG | -0.0723
AGAGGATG | 0.0295
CGTGAACC | -0.0352
AGCGCACG | -0.0739
ACAGTAGG | -0.19
AGACTATC | -0.0367
ATTCAGTG | 0.0284
AGGCGTGC | -0.131
TAGGGAGA | 0.00032
CAGCCGAC | -0.187

Sequence | PBM E-score
ATTAGTTA | 0.267
AGACCTGA | 0.0487
CACGTCCA | -0.357
TCCTTAGA | -0.103
GCCTCTCC | -0.182
AATATTAG | 0.192
GTCATCAC | -0.235
ATCGCGCA | -0.25
GAACACAA | -0.0156
AAGCCATC | 0.0153
ATGCTGAA | 0.012
ATCCCCTG | -0.265
ACTACAGA | 0.17
ACTGCTTG | -0.0756
TGATATAA | 0.222
CCGGCGAG | -0.0596
GAGGGAGC | -0.197
AGGTTTAA | 0.149
AAAACGAG | 0.0435
CGTCAGTA | -0.167
AAGTAGTA | 0.0858
ATACTCCC | 0.108
CGCGAATC | -0.0333
ACCAAGAA | 0.0509
ATTTAGCA | 0.108

Sequence | PBM E-score
TAGCAGAA | 0.0384
AGGATGAG | -0.166
TTCGAAAA | 0.198
AGGGAGAC | -0.0822
CCTCTGGC | -0.22
ACGTGGAA | -0.0834
AGCTTGTG | -0.156
GTTGCCCA | -0.131
GTGCTACA | -0.0297
CTTGGCCC | -0.318
GGATCCCC | -0.0631
CATCTGCA | -0.115
AGAATCAA | 0.102
GTAATCCA | 0.13
AACGGAAG | 0.123
CCGTTCAA | 0.232
CACGCTAG | -0.198
ACTCCATG | -0.0608
CCGAAACC | 0.0583
AACTCATC | 0.135
GGGCTAAC | -0.225
CGGCGTGC | 0.112
GCAGAGCC | -0.254
CTATTGCC | -0.11
AACACTGA | 0.0217

Sequence | PBM E-score
AAGCGGCG | -0.04
GAGTGGGC | -0.103
AATTCTGC | -0.0117
CACAACCA | 0.0851
TACATCAA | 0.107
CCGACTCG | 0.0683
AGATTTGG | 0.052
GCCTGTAC | 0.0162
CACTTCGC | -0.203
CATGAAAA | 0.0814
GGGAACCC | -0.101
CCGGCTCG | 0.0953
CGACGAGA | -0.0273
CGGACACG | 0.0466
AAGTATCC | -0.124
AACTGTAG | -0.0514
CGGGGGTC | -0.158
AAATACAA | 0.238
AATAAGTC | 0.0835
AGACCACT | -0.00453
GCCAGCGA | -0.231
AACTTATT | 0.239
AACGGTTA | -0.0731
ACACTAGC | -0.252
AATAGTAT | 0.233

Sequence | PBM E-score
CAATGAAG | -0.093
CTATGTTC | 0.153
ATGGGGCC | -0.5
AACAGAGA | -0.0653
CCATCAAC | -0.0668
CGTGTTCA | 0.00384
GGTGGTGA | 0.0661
AATATACA | 0.29
TAACCTTA | 0.0692
CTCCTTAA | 0.116
GGCTGGAC | -0.278
AGTCACTG | -0.118
ATTTAAAC | 0.256
ATATGTCG | -0.0687
ACGAACTC | 0.174
ACAGTGCT | 0.0366
ATCTCAAT | 0.113
CAGGACGG | -0.124
ACGCTAAT | -0.0165
GGTGTGTA | -0.123
CTGTATTC | 0.209
GCTCAAGA | -0.148
CCATTGCC | -0.0398
CCGAATCC | 0.143
CCGATGAG | 0.07

Sequence | PBM E-score
CGCTCGCC | -0.0658
CTCCGCGA | 0.35
AGTCTCCA | -0.229
TAATGGCA | -0.134
CTCTTGCA | -0.228
ACCTTGAC | -0.143
ACATCCTC | -0.114
ATCTCACC | 0.0437
CGGCCAAG | -0.0655
GGGTAGAC | -0.151
CTAGTCAA | 0.015
ACCATGAT | -0.0585
TTGGCAAA | -0.0175
AAACGTGG | -0.137
AGAGAAAT | 0.126
GAGGTGCA | -0.0431
AAAGCGCC | 0.0273
AGATAATA | 0.124
AAATGAAT | 0.184
CGTTCCTA | -0.112
ACTGGATC | -0.0162
CAGATCAG | 0.107
